Results reported in the antibiotic and cytotoxicity screens of Wong et al. (2023).
The list shows a part of the results.

What was measured:
[1] = tested on: HSkMC (human skeletal muscle cells); experiment: cytotoxicity call (relative viability < 0.9); conditions: 10 µM
[2] = tested on: HepG2; experiment: cytotoxicity call (relative viability < 0.9); conditions: 10 µM
[3] = tested on: S. aureus RN4220; experiment: growth inhibition call (relative growth <= 0.2); conditions: 50 µM

| Compound | cytotoxicity call [1] | cytotoxicity call [2] | growth inhibition call [3] |
| --- | --- | --- | --- |
| CCCCc1oc2ccccc2c1C(=O)c1cc(I)c(OCCN(CC)CC)c(I)c1.Cl | inactive | active | inactive |
| C[C@@H]1CN([C@H](C)CO)C(=O)c2cc(NS(=O)(=O)c3ccc(Cl)cc3)ccc2O[C@@H](C)CCCCO[C@@H]1CN(C)Cc1ccc(C(=O)O)cc1 | inactive | inactive | inactive |
| C[C@H]1CN([C@@H](C)CO)C(=O)c2cccc(NC(=O)c3ccncc3)c2O[C@H]1CN(C)C(=O)Nc1ccc2c(c1)OCO2 | inactive | inactive | inactive |
| CC(C)NC(=O)N(C)C[C@H]1OCCCC[C@@H](C)Oc2ccc(NC(=O)C3CCCCC3)cc2C(=O)N([C@H](C)CO)C[C@H]1C | inactive | inactive | inactive |
| COCC#Cc1ccc2c(c1)O[C@@H](CN(C)S(=O)(=O)c1ccc(OC)cc1)[C@@H](C)CN([C@H](C)CO)S2(=O)=O | inactive | inactive | inactive |
| C[C@H]1CN([C@@H](C)CO)C(=O)c2cc(Br)cnc2O[C@@H]1CN(C)S(=O)(=O)c1ccccc1 | inactive | inactive | inactive |
| C[C@@H]1CN([C@@H](C)CO)C(=O)Cc2cc(NC(=O)CCN3CCOCC3)ccc2O[C@@H]1CN(C)S(C)(=O)=O | inactive | inactive | inactive |
| CO[C@@H]1CN(C)C(=O)c2cc(NS(=O)(=O)c3cn(C)cn3)ccc2OC[C@@H](C)N(CC2CC2)C[C@@H]1C | inactive | inactive | inactive |
| O=C1CN(S(=O)(=O)Cc2ccccc2)C[C@@H]2[C@@H](c3ccc(C#Cc4cccc(F)c4)cc3)[C@@H](CO)N12 | active | active | inactive |
| CC(C)(C)[S@](=O)N1Cc2cc(C(=O)NCCN3CCCCC3)nc(-c3cccc(-c4cccc(C#N)c4)c3)c2[C@@H]1CCO | inactive | inactive | inactive |
| CNC[C@H]1Oc2ccc(NC(=O)Cn3cnnn3)cc2CC(=O)N([C@@H](C)CO)C[C@H]1C | inactive | inactive | inactive |
| C[C@@H]1CCCCO[C@@H](CN(C)C(=O)c2ccccc2)[C@@H](C)CN([C@@H](C)CO)C(=O)c2cc(NC(=O)C3CCCCC3)ccc2O1 | inactive | inactive | inactive |
| CC(C)NC(=O)Nc1ccc2c(c1)C(=O)N([C@H](C)CO)C[C@H](C)[C@H](CN(C)C(=O)C1CCCCC1)OCCCC[C@H](C)O2 | inactive | inactive | inactive |
| C[C@@H]1CCCCO[C@@H](CN(C)C(=O)Nc2ccccc2)[C@@H](C)CN([C@H](C)CO)C(=O)c2cc(NC(=O)c3ccccc3)ccc2O1 | inactive | inactive | inactive |
| NC[C@@H]1O[C@H](O[C@H]2[C@@H](O)[C@H](O[C@@H]3[C@@H](O)[C@H](N)C[C@H](N)[C@H]3O[C@@H]3O[C@H](CO)[C@@H](O)C[C@H]3N)O[C@@H]2CO)[C@H](N)[C@@H](O)[C@@H]1O[C@H]1O[C@H](CO)[C@@H](O)[C@H](O)[C@@H]1O | inactive | inactive | inactive |
| CS(=O)(=O)CCNCc1nc(-c2ccc3ncnc(Nc4ccc(OCc5cccc(F)c5)c(Cl)c4)c3c2)cs1 | active | inactive | inactive |
| C[C@@H]1CCCCO[C@@H](CN(C)S(C)(=O)=O)[C@H](C)CN([C@H](C)CO)C(=O)c2cc(NS(=O)(=O)c3ccccc3)ccc2O1 | inactive | inactive | inactive |
| C[C@H]1CN([C@@H](C)CO)C(=O)Cc2cc(NC(=O)CCCCCC(=O)Nc3ccccc3N)ccc2O[C@@H]1CN(C)Cc1ccc(Oc2ccccc2)cc1 | inactive | inactive | inactive |
| COc1ccc(CN(C)C[C@@H]2OCCCC[C@H](C)Oc3ccc(NS(=O)(=O)c4ccc(Cl)cc4)cc3C(=O)N([C@@H](C)CO)C[C@@H]2C)cc1 | inactive | inactive | inactive |
| COCC(=O)N(C)C[C@H]1Oc2cc(C#Cc3ccccc3)ccc2S(=O)(=O)N([C@@H](C)CO)C[C@@H]1C | inactive | inactive | inactive |
| C[C@@H]1CN([C@H](C)CO)S(=O)(=O)c2ccc(Br)cc2O[C@H]1CN(C)C(=O)Cc1ccccn1 | inactive | inactive | inactive |
| COc1ccc(CN(C)C[C@H]2OCCCC[C@@H](C)Oc3ccc(NC(=O)Nc4ccc5c(c4)OCO5)cc3C(=O)N([C@@H](C)CO)C[C@@H]2C)cc1 | inactive | inactive | inactive |
| C[C@H]1CN([C@@H](C)CO)C(=O)c2cc(NC(=O)Nc3ccc(C(F)(F)F)cc3)ccc2O[C@H]1CN(C)Cc1ccc2c(c1)OCO2 | inactive | active | active |
